Reference: PubChem BioAssay AID540317 (National Center for Advancing Translational Sciences (NCATS), 2011)
Out of some 390,000 compounds screened, about 2,200 (0.56%) were called active. The inconclusive results got no clear call from the source; some entries with a clear call stand among them for comparison. Calls come from the whole dose curve; as a rule, active = well fitted inhibition curve with a large enough effect; inconclusive = small, poorly fitted or top-dose-only effect; inactive = no such curve, though single readings can be large or run the other way. A potency beside an inconclusive call is a rough fit, not a confirmed value.

target: Chromobox protein homolog 1 (Homo sapiens) (UniProt P83916); experiment: HTS for Inhibitors of HP1-beta Chromodomain Interactions with Methylated Histone Tails; conditions: AlphaScreen HP1-beta / biotin-H3K9me3 peptide binding; series mostly up to 114 µM; activity change, negative = inhibition: at the top concentration; note: nearly all actives have a fitted effect of over 70% in size
Procedure, shortened: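 HP1-beta protein (50 nM final) preincubated 30 min at room temperature with biotinylated H3(1-18)K9me3 peptide (50 nM) in PBS pH 7.4, 0.01% Tween-20, then compound added for 30 min. AlphaScreen streptavidin donor/nickel chelate acceptor beads (10 ug/mL final), 30 min dark, luminescence read.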
Potency is the fitted concentration of half-maximal effect; tags give direction and shape of the fitted curve.

Sequence of UniProt P83916 (P83916 whole entry, looked up): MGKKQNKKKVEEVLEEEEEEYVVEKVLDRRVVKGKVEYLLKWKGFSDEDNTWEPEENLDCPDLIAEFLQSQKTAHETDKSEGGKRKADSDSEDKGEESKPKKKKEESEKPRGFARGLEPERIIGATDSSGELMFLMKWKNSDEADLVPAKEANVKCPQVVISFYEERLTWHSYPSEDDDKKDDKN

SMILES	Potency	activity change, negative = inhibition
CN1CCN(CCCN2c3ccccc3Sc3ccc(Cl)cc32)CC1	inconclusive: 22.4 µM [inhibitor, full curve]	
Cc1ccc(C)c(Cn2nnc(C(=O)NCc3ccccc3)c2N)c1		inactive: 1.19%
CCC(CC)C(=O)N1CCc2cc(OC)c(OC)cc2C1COc1ccccc1OC (stereo not drawn)		inactive: 10.6%
CCOc1cnc(-c2ccccc2F)o1	inconclusive: 89.1 µM [inhibitor, partial curve, poor fit]	
C/C(=C\c1ccccc1F)C1Nc2cccc3cccc(c23)N1	inconclusive: 15.8 µM [inhibitor, full curve]	
Clc1cc2c(c(Cn3cnc4ccccc43)c1)OCOC2		inactive: 26.3%
CCOc1ccc(-c2cnc(NCc3cccc(Cl)c3)n2C)cc1	inconclusive: 22.4 µM [inhibitor, full curve]	
COc1ccccc1Nc1ccc([N+](=O)[O-])cc1N	inconclusive: 44.7 µM [inhibitor, partial curve]	
Cc1ccc(/C=N/N2CCN(Cc3ccccc3)CC2)s1	inconclusive: 20 µM [inhibitor, partial curve, poor fit]	
O=C(CC12CC3CC(CC(C3)C1)C2)Nc1c(F)cccc1F		inactive: 38.8%
O=[N+]([O-])c1ccc(Sc2nnnn2-c2ccccc2)c(Cl)c1	inconclusive: 70.8 µM [inhibitor, partial curve]	
CSc1ccc(CN2CCC(C(=O)NCc3ccc(C)cc3)CC2)cc1	inconclusive: 28.2 µM [inhibitor, single point]	
NC(=O)c1ccc(NC(=O)COC(=O)/C=C/c2ccc(Br)o2)cc1	inconclusive: 22.4 µM [inhibitor, full curve]	
Cc1cc(C(=O)COC(=O)Cc2n[nH]c(=O)c3ccccc23)c(C)n1-c1cccc(C(F)(F)F)c1	inconclusive: 28.2 µM [inhibitor, single point]	
Cn1c(=S)[nH]c(=O)c2ncc(=O)[nH]c21		inactive: 28.1%
CN1C(=O)N(C)C2(c3ccccc3)Nn3c(s/c(=C/c4ccco4)c3=O)=NC12c1ccccc1 (stereo not drawn)	inconclusive: 22.4 µM [inhibitor, partial curve]	
O=C1S/C(=C\c2ccc(O)c([N+](=O)[O-])c2)C(=O)N1Cc1cccc([N+](=O)[O-])c1	inconclusive: 39.8 µM [inhibitor, partial curve]	
CCN(CC)c1ccc(NC(=O)c2cnn3c(C(F)F)cc(-c4ccccc4)nc23)cc1	inconclusive: 7.94 µM [inhibitor, full curve, poor fit]	
COc1ccc(C(=S)N2CCOCC2)cc1OC(=O)c1ccccc1Cl	inconclusive: 50.1 µM [inhibitor, partial curve, poor fit]	
O=C(Nc1cccc(C(F)(F)F)c1)C(Sc1ncnc2ccccc12)c1ccccc1 (stereo not drawn)	inconclusive: 39.8 µM [inhibitor, single point]	
CC(C)(C)c1ccc(OCCC(=O)Nc2cccc(S(=O)(=O)N3CCCCC3)c2)cc1	inconclusive: 89.1 µM [inhibitor, single point]	
Cn1c(=O)[nH]c(=O)c2c1[nH]c(=S)n2Cc1ccc(Cl)cc1	active: 14.1 µM	
C=CCn1c(C)cc(-c2csc(N)n2)c1C	inconclusive: 70.8 µM [inhibitor, partial curve]	

SMILES	Potency	activity change, negative = inhibition
CCC(=O)c1ccc(OCC(=O)OCC(=O)c2cc(C)n(C)c2C)cc1	inconclusive: 70.8 µM [inhibitor, partial curve]	
Fc1ccc(COc2ccccc2C(=S)N2CCCC2)cc1	inconclusive: 17.8 µM [inhibitor, partial curve]	
Cc1ccc(CNc2nc3ccc(Cl)cc3n3nnnc23)cc1		inactive: 17.6%
CCc1cc2c(-c3ccccc3)cc(=O)oc2cc1OCC(C)=O		inactive: 62.5%
COc1ccc(OCC(O)CNC(=O)c2ccc(OC)cc2)cc1 (stereo not drawn)		inactive: 13%
Cc1cc(NCCCn2ccnc2)n2c(nc3ccccc32)c1C#N		inactive: 42.8%
COc1ccc(-c2cc(=Nc3ccc(C)cc3)c3ccccc3o2)cc1	inconclusive: 12.6 µM [inhibitor, full curve]	
Cc1ccc(N2CCN(C(=S)c3ccc(-c4cccc([N+](=O)[O-])c4)o3)CC2)cc1	inconclusive: 8.91 µM [inhibitor, full curve]	
N#CCCN1CCN(S(=O)(=O)c2ccc3c(c2)CCC3)CC1		inactive: 41.6%
N#Cc1c(/N=C/N2CCOCC2)sc2c1CCCCC2	inconclusive: 56.2 µM [inhibitor, single point]	
O=C(N/N=C/c1cc(Br)cc([N+](=O)[O-])c1O)c1ccc(NC(=O)c2ccc(F)cc2)cc1	inconclusive: 22.4 µM [inhibitor, full curve]	
CC(C)(C)NC(=O)C[C@H]1C[C@H](C(=O)N2CCCCC2)[C@@]2(C)c3[nH]c4ccc(Cl)cc4c3CCN2C1=O	inconclusive: 39.8 µM [inhibitor, single point]	
CCOC(=O)CC1=NN(c2ccccc2)C(=O)/C1=C\c1ccc(N(C)C)cc1	inconclusive: 5.01 µM [inhibitor, full curve]	
CC(C)NC(=S)NN=C1CCCCCCCCCCC1	inconclusive: 20 µM [inhibitor, full curve]	
COc1ccc(S(=O)(=O)N(CC(=O)NCCSc2ccccc2)c2ccc(C)cc2)cc1		inactive: 1.39%
Cc1cc(C(=O)NCC(=O)Nc2c(C)cccc2C)c(C)o1		inactive: 7.92%
Cc1cccc(C(C)(C)C)c1OCCN1CCCC1	inconclusive: 56.2 µM [inhibitor, single point]	
OCCN1CCN(c2cc(-c3ccccc3)c3ccccc3n2)CC1	inconclusive: 14.1 µM [inhibitor, full curve, poor fit]	
Cc1csc(Nc2cccc3ccccc23)n1	inconclusive: 44.7 µM [inhibitor, partial curve, poor fit]	
COc1cc(CN2CCSCC2)c([N+](=O)[O-])cc1OC	inconclusive: 70.8 µM [inhibitor, single point]	
COc1ccccc1/C=C/C=C1N=C(/C=C/c2ccc(Cl)cc2)OC/1=O	inconclusive: 10 µM [inhibitor, full curve]	
CC1CCN(c2oc(Cc3cccc4ccccc34)nc2C#N)CC1	inconclusive: 12.6 µM [inhibitor, full curve, poor fit]	
CCOC(=O)C1=C(C)NC(=O)NC1c1c(C)nn(-c2ccccc2)c1Cl (stereo not drawn)	inconclusive: 14.1 µM [inhibitor, full curve, poor fit]	

SMILES	Potency	activity change, negative = inhibition
COc1cccc(CNC(=O)c2ccc3nc(-c4ccccc4)c(-c4ccccc4)nc3c2)c1OC		inactive: 22.4%
COc1cc(/C=C2/C(=O)NN(c3ccc(Cl)c(Cl)c3)C2=O)cc([N+](=O)[O-])c1O	inconclusive: 25.1 µM [inhibitor, partial curve]	
COc1cc(OC)cc(C(=O)NC(=S)Nc2nnn(C)n2)c1	inconclusive: 50.1 µM [inhibitor, partial curve]	
O=C(COC(=O)c1ccc(Br)o1)Nc1nc2ccccc2s1	inconclusive: 44.7 µM [inhibitor, partial curve, poor fit]	
C/C(=N\NC(=O)c1cc(C(C)(C)C)[nH]n1)C12CC3CC(CC(C3)C1)C2		inactive: -17.8%
O=c1c(-n2cncn2)c[nH]n1-c1cccc(Cl)n1	inconclusive: 79.4 µM [inhibitor, single point]	
Cc1cnc(NC(=O)CSc2nnc(CNc3ccc(F)cc3)n2CC2CCCO2)s1 (stereo not drawn)	inconclusive: 31.6 µM [inhibitor, single point]	
O=C(COC(=O)C1CC1)Nc1nc(-c2ccc(F)c(F)c2)cs1		inactive: 25.9%
Cc1c(N=C2C=CC(=O)c3ccccc32)c(=O)n(-c2ccccc2)n1C	active: 10 µM	
O=C(c1nc2ccc(Cl)cn2c1CN1CCC[C@H]1CO)N1CCCCCCC1		inactive: 46.8%
O=C1NC(=S)S/C1=C\c1ccc(SCc2ccco2)o1	active: 11.2 µM	
Cc1ccc(-c2nnc3ccccc3c2C(=O)Nc2ccc(C)c(F)c2)cc1		inactive: 23%
CC1=C(/C=N/Nc2ccc([N+](=O)[O-])cc2[N+](=O)[O-])C(C)(C)CCC1	active: 8.91 µM	
CCOC(=O)c1sc2nc3c(SCC(=O)O)cc(C(=O)c4ccccc4O)cn3c(=O)c2c1C	inconclusive: 14.1 µM [inhibitor, full curve, poor fit]	
COc1c(-c2ccc(O)cc2)oc2cc(O)cc(O)c2c1=O	inconclusive: 17.8 µM [inhibitor, full curve, poor fit]	
COc1cc(/C=N/Nc2nc3ccccc3[nH]2)cc(OC)c1O	inconclusive: 50.1 µM [inhibitor, partial curve]	
Cc1[nH]n(-c2ccccc2)c(=O)c1C=Nc1ccc(S(=O)(=O)Nc2nccs2)cc1	inconclusive: 44.7 µM [inhibitor, partial curve]	
Cn1c(SCC(=O)N/N=C/C=C\c2ccco2)nc2ccccc21	inconclusive: 35.5 µM [inhibitor, partial curve, poor fit]	
O=[N+]([O-])c1ccc(N2CCCCC2)cc1NCCOc1ccccc1	inconclusive: 31.6 µM [inhibitor, partial curve]	
Cc1nc2cc3nc(C)sc3cc2s1	inconclusive: 35.5 µM [inhibitor, partial curve]	
CCCC(=O)N1CCc2[nH]c3ccccc3c2C1	inconclusive: 25.1 µM [inhibitor, single point]	
O=C(COC(=O)c1cc(S(=O)(=O)N2CCc3ccccc3C2)ccc1Cl)NCc1ccco1	inconclusive: 50.1 µM [inhibitor, partial curve]	
